Values joined by “and” are separate entries in the source; they are usually repeats but may differ in a detail not shown here. Identical values can stand only once. Hit rate of the full screen: of about 420,000 compounds, about 50,000 (12%) were called active. Inconclusive results, whose numbers are uncertain, are shown with a selection of clear calls. Calls follow the shape of the dose curve; as a rule, active = well fitted inhibition curve with a large enough effect; inconclusive = small, poorly fitted or top-dose-only effect; inactive = flat fitted curve, though single readings scatter. A potency beside an inconclusive call is a rough fit, not a confirmed value.
Assay: qHTS for Inhibitors of human tyrosyl-DNA phosphodiesterase 1 (TDP1): qHTS in cells in presence of CPT; also: nearly all actives have a fitted effect of over 55% in size
Conditions: chicken DT40 Tdp1-/-;hTDP1 cells + 20 nM CPT, ATP luminescence, 48 h; activity change, negative = growth inhibition: at 46.2 µM (top of the series) unless noted
Procedure, shortened: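 Chicken DT40 Tdp1-/- cells complemented with human TDP1, 400 cells/well, exposed to compounds plus 20 nM camptothecin for at least 48 h at 37 C; viability read as ATP content by CellTiter-Glo luminescence.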
In the case of `O=C(NC1CC(=O)N(c2cccc(F)c2)C1)c1ccc(S(=O)(=O)N2CCOCC2)cc1` (configuration not stated), the “activity change, negative = growth inhibition” value is reported as inactive: -2.88%. In the case of `O=C(O)[C@@H]1CN[C@@H](C(=O)O)C1`, the “activity change, negative = growth inhibition” value is reported as inactive: 8.64%. With `Cc1cnc(NC(=O)c2cncc(Br)c2)s1` the “activity change, negative = growth inhibition” value was inactive: -13.3%. With `COc1cc(C(CC(=O)Nc2ccc(Cl)cn2)N2Cc3ccccc3C2=O)cc(OC)c1OC` (configuration not stated) the Potency was inconclusive: 20.6 µM [inhibitor, single point]. In the case of `O=C(COC(=O)Cn1cnc2ccccc21)Nc1cccc2c1C(=O)c1ccccc1C2=O`, the Potency is reported as inconclusive: 25.9 µM [inhibitor, single point]. In the case of `CCOC(=O)c1ccc(NC(=O)CSc2ccc(-c3sc(C)nc3C)nn2)cc1`, the Potency is reported as inconclusive: 29.1 µM [inhibitor, single point]. With `O=[N+]([O-])c1ccc(N=Cc2ccc(Br)c([N+](=O)[O-])c2)cc1` the Potency was active: 5.17 µM. For `COc1ccc(NC(=O)Nc2ccc3nc(C)c(C)nc3c2)cc1`, the Potency was inconclusive: 20.6 µM [inhibitor, single point]. In the case of `O=C(/C=C1\OCc2cc(OCc3ccccc3)ccc21)OCc1ccccc1`, the Potency is reported as inconclusive: 29.1 µM [inhibitor, single point]. For `CN(C)Cc1c(C(=O)N/N=C/c2ccco2)nnn1-c1nonc1N`, the “activity change, negative = growth inhibition” value was inactive: 8.32%. In the case of `O=C1c2ccccc2C(=O)N1/N=C/c1ccc(Oc2ccc([N+](=O)[O-])cn2)cc1`, the “activity change, negative = growth inhibition” value is reported as inactive: 2.1%. For `COc1cc(-c2cc(C(=O)N3CCN(c4ccccn4)CC3)c3ccccc3n2)cc(OC)c1OC`, the Potency was inconclusive: 25.9 µM [inhibitor, single point]. For `O=[N+]([O-])c1ccc(Nc2nc(NC3CCCCC3)nc(N3CCCC3)n2)cc1`, the Potency was active: 25.9 µM. For `C/C=C/C=C\C(=O)Nc1cccc(C2=NOC3(C2)C[C@@H](C(N)=O)N(C(=O)c2cc([N+](=O)[O-])cc([N+](=O)[O-])c2)C3)c1` (some centres not stated), the Potency was inconclusive: 25.9 µM [inhibitor, single point]. With `CCOC(=O)c1ccc(NC(=O)c2cn(-c3ccccc3)nc2-c2ccc(Br)cc2)cc1` the Potency was inconclusive: 16.4 µM [inhibitor, partial curve]. With `CC(=O)Nc1ccc(S(=O)(=O)Oc2ccc(Br)cc2C(=S)N2CCOCC2)cc1` the “activity change, negative = growth inhibition” value was inactive: -28.2%. In the case of `CC(/C=N/NC(=S)Nc1cccc(S(=O)(=O)N(C)C)c1)c1ccccc1` (configuration not stated), the Potency is reported as inconclusive: 29.1 µM [inhibitor, single point]. For `Cc1c(C(=O)N2CCOCC2)c(S(=O)(=O)Nc2ccccc2F)c(C)n1C`, the “activity change, negative = growth inhibition” value was inactive: 0.136%. In the case of `Cc1c(O)c(=O)ccn1Cc1ccccc1`, the Potency is reported as active: 23.1 µM. In the case of `COc1ccc(C(=O)c2oc3ccccc3c2NC(=O)c2ccc(F)cc2)cc1`, the Potency is reported as inconclusive: 6.51 µM [inhibitor, single point]. With `CC1(C(=O)Nc2cccc(-n3cnnn3)c2)Cc2ccccc2C(=O)O1` (configuration not stated) the “activity change, negative = growth inhibition” value was inactive: -16.2%. In the case of `O=C(c1cn(CCOc2ccccc2F)c2ccccc12)C1CCCCC1`, the Potency is reported as inconclusive: 20.6 µM [inhibitor, single point]. In the case of `CCOc1ccc(NC(=S)N(CCc2c(C)[nH]c3ccccc23)Cc2ccco2)cc1`, the Potency is reported as active: 13 µM. For `c1ccc2c(c1)ccc1nnc(-c3ccc4c(c3)OCO4)n12`, the Potency was inconclusive: 14.6 µM [inhibitor, single point]. For `COc1ccc(Cn2ccc3nc(C)c(C(=O)N4CCN(c5ccccc5)CC4)cc3c2=O)cc1`, the “activity change, negative = growth inhibition” value was inactive: 2.86%. In the case of `O=[N+]([O-])c1ccc2[nH]c3c(c2c1)CCCC3O` (configuration not stated), the “activity change, negative = growth inhibition” value is reported as inactive: 2.97%. With `CCCCN(C(=O)c1cccc(S(=O)(=O)N(C)c2ccc(C)cc2)c1)c1c(N)n(CCCC)c(=O)[nH]c1=O` the Potency was inconclusive: 29.1 µM [inhibitor, single point]. With `COc1ccccc1CNCc1cc(Br)ccc1OC` the Potency was inconclusive: 29.1 µM [inhibitor, single point]. For `CCCCN1CCN=C1N(C)C`, the “activity change, negative = growth inhibition” value was inactive: 14.7%. With `CCn1cc(C(=O)O)c(=O)c2cc(F)c(N3CCN(C(=S)NC(=O)c4ccc(F)c(F)c4)CC3)cc21` the Potency was inconclusive: 23.1 µM [inhibitor, single point]. In the case of `COc1ccc(/C=N\NC(=O)c2cc(OCC(F)(F)F)ccc2OCC(F)(F)F)cc1`, the Potency is reported as inconclusive: 6.51 µM [inhibitor, single point]. For `CC(=O)OC(C)C1C2=C(C(=O)CC1(C)O)C(=O)c1c(ccc(-c3ccc4c(c3O)C(=O)C3=C(C4=O)C(C(C)OC(C)=O)C(C)(O)CC3=O)c1O)C2=O` (configuration not stated), the Potency was active: 1.16 µM. In the case of `CC(C)C1Cc2c(sc3c2c(=O)n(-c2ccccc2)c2n[nH]c(=S)n32)CO1` (configuration not stated), the Potency is reported as inconclusive: 13 µM [inhibitor, partial curve]. In the case of `CCC(=O)OC1(C#CCOc2ccc(OC)cc2)CCN(C)CC1`, the Potency is reported as inconclusive: 18.4 µM [inhibitor, partial curve]. In the case of `COc1ccc(C2C3C(=O)N(Cc4ccccc4)C(=O)C3ON2c2ccccc2)c(OC)c1OC` (configuration not stated), the Potency is reported as inconclusive: 29.1 µM [inhibitor, single point]. For `CCN(CC)CCN(C(=O)c1ccc(CN2CCCCC2)o1)C(C(=O)NC1CCCCC1)c1ccc(F)cc1` (configuration not stated), the Potency was inconclusive: 32.6 µM [inhibitor, single point]. With `Cc1occc1C(=O)N/N=C/c1ccc2c(c1)OCO2` the Potency was inconclusive: 9.2 µM [inhibitor, partial curve]. For `CCCCN1C(=O)c2ccc(C(=O)Nc3cccc(C)c3C)cc2C1=O`, the “activity change, negative = growth inhibition” value was inactive: 1.07%. For `NC(=O)C(c1ccc(Cl)cc1)c1ccc(Sc2ccc(Cl)cc2)nn1` (configuration not stated), the Potency was inconclusive: 14.6 µM [inhibitor, single point]. With `C/C(=N\OC(=O)c1ccc(Cl)cc1)c1sc(-c2ccccc2)nc1C` the Potency was inconclusive: 0.461 µM [inhibitor, partial curve, poor fit]. For `Cc1cc(C)cc(C(=O)N(CCc2ccccc2)C2CC3CCC(C2)N3C)c1` (configuration not stated), the Potency was inconclusive: 23.1 µM [inhibitor, single point]. For `CCc1nonc1NC(=O)c1oc2cc(C)c(Cl)cc2c1C`, the Potency was inconclusive: 5.8 µM [inhibitor, full curve] and inconclusive: 8.2 µM [inhibitor, partial curve, poor fit]. With `O=C(Nc1ccccc1)c1ccc(NC2CCCCC2)c(S(=O)(=O)N2CCOCC2)c1` the Potency was inconclusive: 29.1 µM [inhibitor, single point]. With `O=C(O)C1C(=O)NCC1c1ccccc1` (configuration not stated) the “activity change, negative = growth inhibition” value was inactive: 1.28%. In the case of `CCOC(=O)C1=C(N)OC(CCl)=C(C#N)C1c1ccsc1` (configuration not stated), the Potency is reported as active: 2.06 µM. With `Cc1ccc(Nc2sc(C(=O)c3ccccc3)c(N)c2C(=O)NC(C)C)cc1` the Potency was inconclusive: 25.9 µM [inhibitor, single point]. With `C[C@@H]1NC(=O)c2cc([N+](=O)[O-])cc(I)c2NCCCC[C@@H](C(N)=O)NC(=O)[C@H](CC(N)=O)NC1=O` the “activity change, negative = growth inhibition” value was inactive: -3.63%. In the case of `COc1ccc(C2=NN(C(=O)c3ccccc3)C(c3cccc([N+](=O)[O-])c3)C2)cc1` (configuration not stated), the Potency is reported as inconclusive: 18.4 µM [inhibitor, single point]. For `Cc1cccc(Cn2cc(C(=O)c3ccccc3)c(=O)c3cc4c(cc32)OCO4)c1`, the Potency was inconclusive: 29.1 µM [inhibitor, single point]. In the case of `O=C(Cc1cccc2ccccc12)N/N=C/c1ccc(F)cc1`, the Potency is reported as inconclusive: 11.6 µM [inhibitor, partial curve]. For `COc1ccc(N=Cc2c(O)n(-c3cccc(C)n3)c(=O)c3ccccc23)c(OC)c1`, the “activity change, negative = growth inhibition” value was inactive: 1.67%. For `N[C@@H](C(=O)O)c1ccc(C(=O)O)c(O)c1`, the Potency was inconclusive: 0.376 µM [inhibitor, full curve, poor fit]. In the case of `CCN(CC)CCOC(=O)c1ccc(NC(=O)COc2cc(=O)n(CC)c3ccccc23)cc1`, the Potency is reported as inconclusive: 29.1 µM [inhibitor, single point]. In the case of `Cc1nc2ccn(Cc3cccs3)c(=O)c2cc1C(=O)NCc1ccccc1`, the “activity change, negative = growth inhibition” value is reported as inactive: -11%. In the case of `COC(=O)c1cn(N(C)c2ncc(C(F)(F)F)cc2Cl)c(=O)c2ccccc12`, the Potency is reported as inconclusive: 29.1 µM [inhibitor, single point]. With `CCOC(=O)c1cc(-c2ccccc2)sc1NC(=O)CSc1nnnn1C` the Potency was inconclusive: 14.1 µM [inhibitor, partial curve, poor fit]. For `Cn1c(=O)c2cc(NC(=O)NCCc3cccs3)ccc2n1-c1ccc(C(C)(C)C)cc1`, the Potency was inconclusive: 25.9 µM [inhibitor, single point]. With `O=C(NCC1CC1)[C@]1(C(F)(F)F)C[C@H](CCC2CCCCC2)CCCO1` the Potency was inconclusive: 29.1 µM [inhibitor, single point]. In the case of `O=C(NC(=S)N1CCc2ccccc21)c1ccc(Br)o1`, the Potency is reported as active: 2.91 µM. With `COc1ccc(C2C=C(c3ccccc3)Nc3nc(NC(=O)/C=C/c4ccc(F)cc4)nn32)cc1` (configuration not stated) the Potency was active: 20.6 µM. For `CN(C1CCCCC1)S(=O)(=O)c1cc2c(cc1Cl)NC(=O)CO2`, the “activity change, negative = growth inhibition” value was inactive: -1.53%. With `COc1ccc2c(c1)c1c(c(=O)n(-c3ccccc3C)c(=O)n1CC(=O)N1CCCC1)n2C` the Potency was inconclusive: 3.66 µM [inhibitor, full curve, poor fit]. With `Cn1c(=O)[nH]c(=O)c2c1nc(N1CCNCC1)n2Cc1ccccc1` the “activity change, negative = growth inhibition” value was inactive: -22.3%. For `CCc1nnc(NC(=O)CSc2nnc(CSc3nc(C)cc(C)n3)o2)s1`, the “activity change, negative = growth inhibition” value was inactive: -3.86%. For `Cc1ccc(CNC(=O)c2cc(C3CC3)nc3c2cnn3C(C)C)cc1`, the Potency was inconclusive: 20.6 µM [inhibitor, single point]. With `COCCNC(=S)NCCCNc1nc2cc3c(cc2cc1C#N)OCO3` the “activity change, negative = growth inhibition” value was inactive: -13.5%. For `COc1cccc(CN2C(=O)CN(C3CCCCC3)C(=O)C2c2ccc(OC)c(OC)c2)c1` (configuration not stated), the Potency was inconclusive: 23.1 µM [inhibitor, partial curve].

From PubChem BioAssay AID686979 (National Center for Advancing Translational Sciences (NCATS), 2013)
% is scaled to controls: 0 for no effect and ±100 for the full control effect; potency is read from the fitted curve at half-maximal effect; tags tell the direction and shape of the fitted curve.
